System: metal trafficking genes (MT1F, MT1X, MT2A, SLC30A1, SLC30A2) in MCF-7 cells
Assay: Transcriptome sequencing (RNA-seq)
Conditions: 30 μM ZNA, only after three hours, not sustained at 12 hours

In the case of `COc1ccc(-c2c(Cc3ccccc3)[nH]/c(=N\C(=O)c3ccccc3F)n2C)cc1` [ZNA, (E)-N-(4-benzyl-5-(4-methoxyphenyl)-1-methyl-1H-imidazol-2(3H)-ylidene)-2-fluorobenzamide], the “expression of SLC30A1 and SLC30A2 transcripts” value is reported as “increased expression”.

Source: US10493061B2, “Compositions and methods comprising 2-(acylamino)imidazoles” (priority 2014, dated 2019)
